Assay results published in PMC7865452.
These are yes or no findings as the source states them, for the method shown. Binding seen in cells or lysates may run through a third protein. Some entries that bind do so weakly or less than the wild type. For part of these data: Sequences can lack the tags named with a protein.

Chains of the proteins cited; added tags and fusions are not shown.
UniProt O75340: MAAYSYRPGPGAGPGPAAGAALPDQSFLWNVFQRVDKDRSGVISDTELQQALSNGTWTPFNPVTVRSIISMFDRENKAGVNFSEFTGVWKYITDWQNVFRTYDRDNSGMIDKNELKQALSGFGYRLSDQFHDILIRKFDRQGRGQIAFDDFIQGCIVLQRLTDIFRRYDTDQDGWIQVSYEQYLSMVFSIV
UniProt O95292: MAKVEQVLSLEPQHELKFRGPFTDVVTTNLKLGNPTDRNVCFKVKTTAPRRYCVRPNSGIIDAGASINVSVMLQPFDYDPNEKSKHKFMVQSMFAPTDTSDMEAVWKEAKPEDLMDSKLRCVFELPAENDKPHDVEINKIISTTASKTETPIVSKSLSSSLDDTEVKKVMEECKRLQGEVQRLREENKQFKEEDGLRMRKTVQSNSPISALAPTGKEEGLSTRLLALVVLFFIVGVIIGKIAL

What was measured:
[1] = molecular target: Apoptosis-linked gene 2 (ALG-2), endogenous in HEK293 cells (human (endogenous in HEK293)) (UniProt O75340); assay: co-IP; HEK293 treated with BFA (0.2 ug/mL, 9 h); HKM buffer, 1% CHAPS; rabbit polyclonal antibody against ALG-2, Protein G magnetic beads; 5 mM EGTA; Western blot
[2] = molecular target: VAPB, endogenous in HEK293 cells treated with BFA (human (endogenous in HEK293)) (UniProt O95292); assay: co-IP; HEK293 treated with BFA (9 h); HKM buffer, 1% CHAPS; rabbit polyclonal antibody against VAPB, Protein G magnetic beads; 5 mM EGTA; Western blot
[3] = molecular target: Apoptosis-linked gene 2 (ALG-2), endogenous in HEK293 cells (human (endogenous in HEK293)) (UniProt O75340); assay: co-IP; HEK293 treated with BFA (0.2 ug/mL, 9 h); HKM buffer, 1% CHAPS; rabbit polyclonal antibody against ALG-2, Protein G magnetic beads; 10 uM CaCl2; Western blot
[4] = molecular target: VAPB, endogenous in HEK293 cells treated with BFA (human (endogenous in HEK293)) (UniProt O95292); assay: co-IP; HEK293 treated with BFA (9 h); HKM buffer, 1% CHAPS; rabbit polyclonal antibody against VAPB, Protein G magnetic beads; 10 uM CaCl2; Western blot
[5] = molecular target: T1, GFP-fused CDIP1 (cell death-inducing p53 target protein 1) (human) (UniProt Q9H305); assay: co-IP; cleared lysate of transfected HEK293 (HKM buffer, 0.2% Triton X-100); GST-fused GFP nanobody on glutathione beads; 10 uM CaCl2; overnight, 4 C; Western blot
T1 sequence: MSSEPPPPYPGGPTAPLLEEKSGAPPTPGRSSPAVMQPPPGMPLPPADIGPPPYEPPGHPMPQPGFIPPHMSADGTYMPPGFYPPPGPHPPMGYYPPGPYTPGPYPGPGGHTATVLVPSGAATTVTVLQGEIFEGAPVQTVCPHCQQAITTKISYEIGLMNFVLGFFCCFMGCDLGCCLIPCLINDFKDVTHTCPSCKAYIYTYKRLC

Row | binding [1] | binding [2] | binding [3] | binding [4] | Binder | binding [5]
1 | no binding (condition: with 5 mM EGTA) | binds | binds | binds | CDIP1, endogenous in HEK293 cells treated with BFA (protein, UniProt Q9H305 1-208) MSSEPPPPYPGGPTAPLLEEKSGAPPTPGRSSPAVMQPPPGMPLPPADIGPPPYEPPGHPMPQPGFIPPHMSADGTYMPPGFYPPPGPHPPMGYYPPGPYTPGPYPGPGGHTATVLVPSGAATTVTVLQGEIFEGAPVQTVCPHCQQAITTKISYEIGLMNFVLGFFCCFMGCDLGCCLIPCLINDFKDVTHTCPSCKAYIYTYKRLC | 
2 |  |  |  |  | Peflin, endogenous in HEK293 cells (protein, UniProt Q9UBV8 1-284) MASYPYRQGCPGAAGQAPGAPPGSYYPGPPNSGGQYGSGLPPGGGYGGPAPGGPYGPPAGGGPYGHPNPGMFPSGTPGGPYGGAAPGGPYGQPPPSSYGAQQPGLYGQGGAPPNVDPEAYSWFQSVDSDHSGYISMKELKQALVNCNWSSFNDETCLMMINMFDKTKSGRIDVYGFSALWKFIQQWKNLFQQYDRDRSGSISYTELQQALSQMGYNLSPQFTQLLVSRYCPRSANPAMQLDRFIQVCTQLQVLTEAFREKDTAVQGNIRLSFEDFVTMTASRML | binds
3 |  |  |  |  | Sec31A, endogenous in HEK293 cells (protein, UniProt O94979 1-1220) MKLKEVDRTAMQAWSPAQNHPIYLATGTSAQQLDATFSTNASLEIFELDLSDPSLDMKSCATFSSSHRYHKLIWGPYKMDSKGDVSGVLIAGGENGNIILYDPSKIIAGDKEVVIAQNDKHTGPVRALDVNIFQTNLVASGANESEIYIWDLNNFATPMTPGAKTQPPEDISCIAWNRQVQHILASASPSGRATVWDLRKNEPIIKVSDHSNRMHCSGLAWHPDVATQMVLASEDDRLPVIQMWDLRFASSPLRVLENHARGILAIAWSMADPELLLSCGKDAKILCSNPNTGEVLYELPTNTQWCFDIQWCPRNPAVLSAASFDGRISVYSIMGGSTDGLRQKQVDKLSSSFGNLDPFGTGQPLPPLQIPQQTAQHSIVLPLKKPPKWIRRPVGASFSFGGKLVTFENVRMPSHQGAEQQQQQHHVFISQVVTEKEFLSRSDQLQQAVQSQGFINYCQKKIDASQTEFEKNVWSFLKVNFEDDSRGKYLELLGYRKEDLGKKIALALNKVDGANVALKDSDQVAQSDGEESPAAEEQLLGEHIKEEKEESEFLPSSGGTFNISVSGDIDGLITQALLTGNFESAVDLCLHDNRMADAIILAIAGGQELLARTQKKYFAKSQSKITRLITAVVMKNWKEIVESCDLKNWREALAAVLTYAKPDEFSALCDLLGTRLENEGDSLLQTQACLCYICAGNVEKLVACWTKAQDGSHPLSLQDLIEKVVILRKAVQLTQAMDTSTVGVLLAAKMSQYANLLAAQGSIAAALAFLPDNTNQPNIMQLRDRLCRAQGEPVAGHESPKIPYEKQQLPKGRPGPVAGHHQMPRVQTQQYYPHGENPPPPGFIMHGNVNPNAAGQLPTSPGHMHTQVPPYPQPQPYQPAQPYPFGTGGSAMYRPQQPVAPPTSNAYPNTPYISSASSYTGQSQLYAAQHQASSPTSSPATSFPPPPSSGASFQHGGPGAPPSSSAYALPPGTTGTLPAASELPASQRTGPQNGWNDPPALNRVPKKKKMPENFMPPVPITSPIMNPLGDPQSQMLQQQPSAPVPLSSQSSFPQPHLPGGQPFHGVQQPLGQTGMPPSFSKPNIEGAPGAPIGNTFQHVQSLPTKKITKKPIPDEHLILKTTFEDLIQRCLSSATDPQTKRKLDDASKRLEFLYDKLREQTLSPTITSGLHNIARSIETRNYSEGLTMHTHIVSTSNFSETSAFMPVLKVVLTQANKLGV | no binding
